Whole data set: some 33,000 sequences, median “E-score (-0.5 to 0.5)” near -0.016, cut for the highest 2% near 0.32. The list shows a part of the results.
Biological target: T1, Stp1 (UniProt B3LFK1)
T1 sequence: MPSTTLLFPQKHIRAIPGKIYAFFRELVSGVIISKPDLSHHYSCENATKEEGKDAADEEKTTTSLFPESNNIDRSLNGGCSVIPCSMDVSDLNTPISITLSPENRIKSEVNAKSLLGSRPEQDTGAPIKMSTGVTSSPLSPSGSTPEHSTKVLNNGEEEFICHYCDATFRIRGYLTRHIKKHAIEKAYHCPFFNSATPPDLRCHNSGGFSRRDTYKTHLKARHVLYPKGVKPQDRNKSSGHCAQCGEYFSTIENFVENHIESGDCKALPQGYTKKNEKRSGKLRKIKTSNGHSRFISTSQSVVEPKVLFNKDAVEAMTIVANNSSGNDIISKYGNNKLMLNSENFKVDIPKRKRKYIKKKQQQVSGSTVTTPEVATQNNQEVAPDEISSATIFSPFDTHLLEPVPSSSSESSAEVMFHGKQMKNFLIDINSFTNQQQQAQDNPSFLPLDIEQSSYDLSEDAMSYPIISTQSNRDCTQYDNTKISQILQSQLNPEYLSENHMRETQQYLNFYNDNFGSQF
Assay: PBM E-score (8-mer binding enrichment) (E-score (-0.5 to 0.5)); higher = stronger / more preferred TF binding; most listed sequences are background and not binding sites
Conditions: protein concentration: 200 nM; construct: GST-full length
Procedure: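 Universal 'all 10-mer' protein binding microarrays (Agilent AMADID 015681) probed with GST-tagged S. cerevisiae TFs (full-length or DBD) made by in vitro transcription/translation (PURExpress), about 100-200 nM. Bound TF was detected with fluorescent anti-GST. Each ungapped 8-mer (which stands for itself and its reverse complement) is scored by the PBM enrichment score (E-score), a modified Wilcoxon-Mann-Whitney statistic from -0.5 to +0.5, computed with the Universal PBM Analysis Suite. Scale: above 0.35 generally sequence-specific binding.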

| Sequence | PBM E-score |
| --- | --- |
| AATCGATA | 0.18 |
| AGGCACCA | 0.366 |
| ACCGTTAT | -0.0617 |
| ACTCATCA | -0.0466 |
| CATTCTGC | 0.0719 |
| TAAACAGA | -0.0109 |
| ATCACCTA | -0.175 |
| CTCAAGCA | -0.183 |
| AATCATGC | -0.024 |
| ACACATGC | 0.0352 |
| GAGGATCC | -0.139 |
| GTCTCGTA | -0.0751 |
| CAAAACGA | 0.108 |
| CAAATTAA | 0.117 |
| ATGAGATC | -0.0595 |
| CACGACGA | -0.0637 |
| ATCCGTTC | 0.217 |
| AACGGTGA | -0.0237 |
| AATACAAT | 0.0401 |
| AAGTGGAG | 0.00133 |
| AAGGATAG | -0.00218 |
| CTGACCGC | -0.11 |

| Sequence | PBM E-score |
| --- | --- |
| TCATAGGA | 0.0953 |
| ACATGGGT | -0.108 |
| TCATGGAA | -0.0494 |
| AGTAGCAC | -0.0227 |
| GGAACTCA | -0.201 |
| ACAAGGGT | -0.0238 |
| CTTCTCTC | -0.035 |
| ACGCCTCG | 0.381 |
| CTTAGCTA | -0.0783 |
| CGCGGATA | 0.297 |
| ACTGAAAA | 0.0532 |
| GGTAGTCA | -0.388 |
| ATCACCAG | -0.00524 |
| ACGTTAGG | -0.041 |
| ACGAACGC | 0.159 |
| AGCTACGC | 0.117 |
| TAAAGAAA | 0.173 |
| CTAGCCAC | -0.146 |
| CCATGAAA | 0.124 |
| GCGTTGTA | 0.133 |
| CAGAGGAC | -0.15 |
| ACTAGTAT | 0.0239 |

| Sequence | PBM E-score |
| --- | --- |
| ATAGAACC | -0.0631 |
| ACAGACCA | -0.0595 |
| CCGGAGAC | -0.131 |
| GTATTCGA | -0.0928 |
| GTGGGCGA | -0.00284 |
| ACGGATCT | 0.157 |
| ACGACGCA | 0.0151 |
| AATCCCCA | -0.248 |
| CACACCAG | 0.00669 |
| AGGGATGG | 0.0506 |
| GGGAAGAC | -0.17 |
| TAGCTAAA | 0.0136 |
| AGTTTTGC | 0.203 |
| CGGACTAA | 0.0595 |
| CTGCACAG | -0.0773 |
| CCCGATTA | -0.0457 |
| CACCGATG | 0.0307 |
| AGGACTGC | -0.256 |
| AGACTCAG | -0.133 |
| AGATTTTA | 0.00229 |
| GGAGGACC | -0.0674 |
| TATTGGGA | -0.00437 |

| Sequence | PBM E-score |
| --- | --- |
| CCACTAAG | -0.0734 |
| AGTGGCAT | 0.138 |
| AGTAGCCC | -0.18 |
| CGCAGTTC | 0.00875 |
| GCGAAGCA | 0.0608 |
| GGTACTAC | 0.0131 |
| CTTCGGGC | -0.283 |
| GAAAGTCC | -0.223 |
| ATTGACAG | -0.0817 |
| CCATGTGA | 0.0626 |
| CACCGGAA | -0.063 |
| CTCGTTGA | 0.0229 |
| TCCAATCA | 0.111 |
| AAATTAGA | 0.164 |
| GTATCCAA | -0.00185 |
| GAATTCAC | 0.00462 |
| CAGCCGCA | 0.215 |
| ATCCTCAA | -0.0466 |
| ATTACGCG | 0.25 |
| ACGTCATG | 0.0735 |
| ACCAGCGA | -0.232 |
| CGGGTAAC | 0.00093 |

| Sequence | PBM E-score |
| --- | --- |
| GCAATCGA | 0.0926 |
| ACCTTTGA | -0.201 |
| AGATAAAA | 0.12 |
| AATTTCGT | 0.167 |
| AAGCGACA | -0.0218 |
| CGCTTGAG | -0.0328 |
| AAGGTAGT | -0.00268 |
| AACGCAGC | 0.0987 |
| AGTAACGA | 0.0053 |
| AGGAACTC | 0.0359 |
| GACACATA | 0.0206 |
| ACTGTTCA | -0.162 |
| TCGCTAAA | 0.103 |
| AGGTCCAT | -0.00683 |
| CACTCACA | -0.0382 |
| CCGACACA | -0.186 |
| AGGCCGCA | 0.162 |
| ATTATATA | 0.146 |
| CACCGTCC | 0.0591 |
| AATCGCCG | 0.431 |
| GCCGGTGA | 0.0592 |
